This is one part of the list. A value given as a limit tells only on which side of the number the result lay.

The chains are these.
B1: PhoQ; a variant is named by its letters at X, in order, P23837 (parent)
chain: MKKLLRLFFPLSLRVRFLLATAAVVLVLSLAYGMVALIGYSVSFDKTTFRLLRGESNLFYTLAKWENNKLHVELPENIDKQSPTMTLIYDENGQLLWAQRDVPWLMKMIQPDWLKSNGFHEIEADVNDTSLLLSGDHSIQQQLQEVREDDDDAEMTHSVAVNVYPATSRMPKLTIVVVDTIPVELKSSYMVWSWFIYVLSANLLLVIPLLWVAAWWSLRPIEALAKEVRELEEHNRELLNPATTRELTSLVRNLNRLLKSERERYDKYRTTLTDLTHSLKTPLXXLQXXLRSLRSEKMSVSDAEPVMLEQISRISQQIGYYLHRASMRGGTLLSRELHPVAPLLDNLTSALNKVYQRKGVNISLDISPEISFVGEQNDFVEVMGNVLDNACKYCLEFVEISARQTDEHLYIVVEDDGPGIPLSKREVIFDRGQRVDTLRPGQGVGLAVAREITEQYEGKIVAGESMLGGARMEVIFGRQHSAPKDE

The variants in this experiment derive from B1. Kind of experiment: enrichment ratio after two sorts for PhoP signalling (ratio (wild type AVST 3.29)); higher = more functional. The note with it: with PhoP (E. coli).
As to LMEN, the enrichment ratio was no more than 0.25.

In the case of KDYT, the enrichment ratio was no more than 0.25.

Take KLPV: the enrichment ratio is no more than 0.25.

For DKSF, the enrichment ratio was no more than 0.25.

As to DHAP, the enrichment ratio is 1.17.

As for YTQA, the enrichment ratio is no more than 0.25.

For SMTI, the enrichment ratio was found to be 8.27.

Take LFGF: the enrichment ratio turned out to be 1.14.

As to DCWS, the enrichment ratio was no more than 0.25.

As to QSMV, the enrichment ratio is 8.22.

In the case of TRSH, the enrichment ratio is no more than 0.25.

As to IYTY, the enrichment ratio was no more than 0.25.

Turning to DALE, the enrichment ratio was no more than 0.25.

On to KFIG, for which the enrichment ratio was no more than 0.25.

With GAPN, the enrichment ratio is no more than 0.25.

DVHI: the enrichment ratio was no more than 0.25.

Consider ALLV, for which the enrichment ratio was 7.92.

Turning to KCLE, the enrichment ratio was no more than 0.25.

For FCRS, the enrichment ratio was no more than 0.25.

Regarding YARE, the enrichment ratio is no more than 0.25.

Turning to RKGW, the enrichment ratio is no more than 0.25.

Consider FPWD, for which the enrichment ratio is no more than 0.25.

WNWF: the enrichment ratio is no more than 0.25.

Take MYRC: the enrichment ratio was no more than 0.25.

Take KHDN: the enrichment ratio is no more than 0.25.

With KSLD, the enrichment ratio was no more than 0.25.

With QDGD, the enrichment ratio was no more than 0.25.

Turning to MCDP, the enrichment ratio is no more than 0.25.

For GANW, the enrichment ratio was no more than 0.25.

Turning to YKVM, the enrichment ratio came out at 0.276.

Take HFDT: the enrichment ratio is no more than 0.25.

Turning to SQVS, the enrichment ratio was 5.66.

As for NNEV, the enrichment ratio was no more than 0.25.

For the variant GTVR, the enrichment ratio is no more than 0.25.

As to LSEQ, the enrichment ratio was no more than 0.25.

On to PDLI, for which the enrichment ratio was no more than 0.25.

As for AYIY, the enrichment ratio is no more than 0.25.

Consider QEDP, for which the enrichment ratio was no more than 0.25.

Regarding KESF, the enrichment ratio was no more than 0.25.

Consider VKCY, for which the enrichment ratio was no more than 0.25.

Turning to KNPT, the enrichment ratio was no more than 0.25.

Take KEYG: the enrichment ratio was no more than 0.25.

Turning to GTPN, the enrichment ratio was no more than 0.25.

Regarding FNEK, the enrichment ratio is no more than 0.25.

Consider ANMC, for which the enrichment ratio worked out at 22.9.

Regarding IIID, the enrichment ratio is no more than 0.25.

For the variant SFCG, the enrichment ratio is 11.1.

Take DCTF: the enrichment ratio was no more than 0.25.

With KIQC, the enrichment ratio is no more than 0.25.

Consider YCLQ, for which the enrichment ratio stood at 5.31.

As for QRMY, the enrichment ratio was no more than 0.25.

As for LKMT, the enrichment ratio was no more than 0.25.

On to NVGD, for which the enrichment ratio is no more than 0.25.

In the case of RCHR, the enrichment ratio is 0.377.

Take ETVM: the enrichment ratio is no more than 0.25.

HSER: the enrichment ratio is no more than 0.25.

As for QNPV, the enrichment ratio was no more than 0.25.

As for SCRE, the enrichment ratio is no more than 0.25.

For the variant VLTE, the enrichment ratio is no more than 0.25.

With KADR, the enrichment ratio is no more than 0.25.

Regarding WNRV, the enrichment ratio is no more than 0.25.

Consider LRNG, for which the enrichment ratio is no more than 0.25.

As to DVQL, the enrichment ratio was no more than 0.25.

Regarding HSAN, the enrichment ratio is no more than 0.25.

On to TETR, for which the enrichment ratio is no more than 0.25.

Regarding IAQW, the enrichment ratio was no more than 0.25.

Consider HGGM, for which the enrichment ratio was no more than 0.25.

For the variant RKEG, the enrichment ratio is no more than 0.25.

GFGS: the enrichment ratio was no more than 0.25.

With MREC, the enrichment ratio is no more than 0.25.

For the variant GMQM, the enrichment ratio was no more than 0.25.

Regarding PHGS, the enrichment ratio was no more than 0.25.

For TIMK, the enrichment ratio was no more than 0.25.

In the case of YCPV, the enrichment ratio is no more than 0.25.

Regarding YMNY, the enrichment ratio was no more than 0.25.

As to MRQR, the enrichment ratio was no more than 0.25.

Take TTTG: the enrichment ratio stood at 7.1.

As for RLHQ, the enrichment ratio was no more than 0.25.

As to PLGV, the enrichment ratio was no more than 0.25.

As to AHRT, the enrichment ratio is no more than 0.25.

As for SSCI, the enrichment ratio was 24.5.

As for IAPQ, the enrichment ratio was no more than 0.25.

As to ANKM, the enrichment ratio is no more than 0.25.

Turning to DFQH, the enrichment ratio was no more than 0.25.

As for DIYS, the enrichment ratio was no more than 0.25.

On to FHYR, for which the enrichment ratio was no more than 0.25.

With GRKA, the enrichment ratio is no more than 0.25.

Take VLFR: the enrichment ratio was no more than 0.25.

With SPKY, the enrichment ratio was no more than 0.25.

As for GDKG, the enrichment ratio is no more than 0.25.

In the case of SFIM, the enrichment ratio is no more than 0.25.

Take IYCW: the enrichment ratio was no more than 0.25.

As for HPQM, the enrichment ratio was no more than 0.25.

Turning to MTYP, the enrichment ratio is no more than 0.25.

For NYRY, the enrichment ratio was no more than 0.25.

For the variant NFYD, the enrichment ratio was no more than 0.25.

As to LRRT, the enrichment ratio is no more than 0.25.

As to NPMD, the enrichment ratio was no more than 0.25.

On to YGEN, for which the enrichment ratio is no more than 0.25.

As for PPSL, the enrichment ratio was no more than 0.25.

Turning to YFVD, the enrichment ratio was no more than 0.25.

Take RYIT: the enrichment ratio is no more than 0.25.

Take LWMA: the enrichment ratio is no more than 0.25.

FNLM: the enrichment ratio stood at 5.75.

In the case of ILPV, the enrichment ratio was no more than 0.25.

With GCMT, the enrichment ratio was no more than 0.25.

As for VATY, the enrichment ratio was no more than 0.25.

For the variant VCMM, the enrichment ratio is 2.29.

With WYSA, the enrichment ratio is no more than 0.25.

Regarding FWKV, the enrichment ratio was no more than 0.25.

As for DQGE, the enrichment ratio was no more than 0.25.

Regarding ILHH, the enrichment ratio was no more than 0.25.

For the variant ERAG, the enrichment ratio was no more than 0.25.

Consider WWPI, for which the enrichment ratio was no more than 0.25.

As for MTTW, the enrichment ratio was no more than 0.25.

With FDNC, the enrichment ratio was no more than 0.25.

On to FWCV, for which the enrichment ratio was no more than 0.25.

MPGK: the enrichment ratio is no more than 0.25.

On to WRRL, for which the enrichment ratio was no more than 0.25.

In the case of KDKW, the enrichment ratio was no more than 0.25.

Turning to ANQT, the enrichment ratio is no more than 0.25.

As for SCWN, the enrichment ratio is no more than 0.25.

On to WHNF, for which the enrichment ratio was no more than 0.25.

For WNHN, the enrichment ratio is no more than 0.25.

For WSHI, the enrichment ratio was no more than 0.25.

KAMF: the enrichment ratio is no more than 0.25.

For YCFD, the enrichment ratio is no more than 0.25.

Regarding QPWK, the enrichment ratio is no more than 0.25.

On to GRAI, for which the enrichment ratio is no more than 0.25.

Consider WTVD, for which the enrichment ratio is no more than 0.25.

Consider HMVL, for which the enrichment ratio was no more than 0.25.

As for LHAG, the enrichment ratio was no more than 0.25.

Turning to IRWL, the enrichment ratio is no more than 0.25.

On to ECSD, for which the enrichment ratio is no more than 0.25.

As to VKIC, the enrichment ratio was no more than 0.25.

For AWHF, the enrichment ratio is no more than 0.25.

Regarding NQSE, the enrichment ratio is no more than 0.25.

In the case of IWQY, the enrichment ratio is no more than 0.25.

On to EPGQ, for which the enrichment ratio was no more than 0.25.

As to HFAK, the enrichment ratio was no more than 0.25.

With AWKT, the enrichment ratio was no more than 0.25.

As to HGDH, the enrichment ratio is no more than 0.25.

Consider YYID, for which the enrichment ratio was no more than 0.25.

Regarding VLCW, the enrichment ratio was no more than 0.25.

As to AMKP, the enrichment ratio was no more than 0.25.

HKYA: the enrichment ratio was no more than 0.25.

Consider FMEY, for which the enrichment ratio was no more than 0.25.

With EGTL, the enrichment ratio was no more than 0.25.

With EYCF, the enrichment ratio is no more than 0.25.

Take IAKT: the enrichment ratio is no more than 0.25.

In the case of MSED, the enrichment ratio was no more than 0.25.

Turning to FKPT, the enrichment ratio was no more than 0.25.

Take DQER: the enrichment ratio was no more than 0.25.
